The whole screen tested about 310,000 compounds, of which about 14,000 (4.5%) showed an effect of 50% or more. The effect is printed as a negative number. The list shows a part of the results.
target: human ether-à-go-go-related gene (hERG) potassium channel (human, UniProt Q12809); test: primary screen, population patch clamp on CHO cells stably expressing hERG
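Further: peak tail current of the secondary pulse compared with the same well before compound.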

Sequence of human ether-à-go-go-related gene (hERG) potassium channel (Q12809 whole entry, looked up): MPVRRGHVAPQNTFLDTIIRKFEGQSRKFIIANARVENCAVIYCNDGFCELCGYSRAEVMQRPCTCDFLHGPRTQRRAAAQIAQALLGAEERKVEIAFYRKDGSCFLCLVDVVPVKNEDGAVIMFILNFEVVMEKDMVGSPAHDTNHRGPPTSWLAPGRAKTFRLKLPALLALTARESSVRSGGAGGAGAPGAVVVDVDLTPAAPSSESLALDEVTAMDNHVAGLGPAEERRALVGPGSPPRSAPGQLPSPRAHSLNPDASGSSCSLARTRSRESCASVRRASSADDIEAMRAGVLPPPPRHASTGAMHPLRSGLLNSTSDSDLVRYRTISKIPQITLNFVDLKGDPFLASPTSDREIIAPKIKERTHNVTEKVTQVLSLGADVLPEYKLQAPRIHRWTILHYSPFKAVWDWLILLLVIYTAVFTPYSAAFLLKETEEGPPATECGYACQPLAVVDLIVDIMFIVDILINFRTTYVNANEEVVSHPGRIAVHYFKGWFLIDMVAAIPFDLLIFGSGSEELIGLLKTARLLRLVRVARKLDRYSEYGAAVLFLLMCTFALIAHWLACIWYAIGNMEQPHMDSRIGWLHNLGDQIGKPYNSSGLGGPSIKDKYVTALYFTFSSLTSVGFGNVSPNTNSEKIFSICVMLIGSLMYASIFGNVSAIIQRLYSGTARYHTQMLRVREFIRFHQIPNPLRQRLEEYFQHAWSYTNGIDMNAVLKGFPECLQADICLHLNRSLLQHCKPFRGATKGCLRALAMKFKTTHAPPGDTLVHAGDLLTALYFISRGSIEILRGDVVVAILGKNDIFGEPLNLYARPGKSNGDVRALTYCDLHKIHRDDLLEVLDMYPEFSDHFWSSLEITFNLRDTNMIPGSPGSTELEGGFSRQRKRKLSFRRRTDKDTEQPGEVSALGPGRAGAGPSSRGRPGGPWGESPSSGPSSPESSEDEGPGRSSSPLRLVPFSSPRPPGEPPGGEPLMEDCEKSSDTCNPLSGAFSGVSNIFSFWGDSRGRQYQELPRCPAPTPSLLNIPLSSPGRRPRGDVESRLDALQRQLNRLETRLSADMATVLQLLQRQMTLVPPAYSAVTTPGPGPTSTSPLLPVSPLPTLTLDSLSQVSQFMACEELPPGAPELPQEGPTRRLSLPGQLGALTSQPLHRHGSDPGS

Row | SMILES | hERG current change (%, negative = inhibition) at 10uM
1 | O=C1CN(O)C(c2ccccc2Cl)=c2cc(Br)ccc2=N1 | 19.7%
2 | O=C(CCCN1C(=O)C2CCCCN2C1=O)N1CCN(c2ccc([N+](=O)[O-])cc2)CC1 (stereo not shown) | -74.7%
3 | CCN(CC)S(=O)(=O)c1ccc2[nH]cc(C(=O)NCCc3ccccc3)c(=O)c2c1 | 11.4%
4 | O=C(Cc1nnc(NC(=O)c2ccccc2)s1)N/N=C/c1ccco1 | 6.79%
5 | CCN(c1ccccc1)S(=O)(=O)c1cccc(C(=O)NCc2ccccn2)c1 | -11.1%
6 | Cc1ccc(C(=O)NC(NCC2CCCO2)C(Cl)(Cl)Cl)cc1 (stereo not shown) | -10.5%
7 | O=C(c1ccc(CNS(=O)(=O)c2cccc(Cl)c2)cc1)N1CCCCC1 | 13.6%
8 | CC(=O)Nc1ccccc1Oc1ccccc1 | 5.79%
9 | CNc1nc(SC)n(C)c(=O)c1N=O | 10.1%
10 | Cc1cc(C)n2nc(C(=O)N/N=C/c3ccccc3C)nc2n1 | 4.85%
11 | CCOC(=O)C1(Cc2ccc(Cl)cc2)CCN(Cc2nccn2CC)CC1 | -67.6%
12 | CCN(CC)c1ccc(SS(=O)(=O)O)cc1 | 9.02%
13 | Cc1ccc(Cl)cc1NC(=O)CN1CCOCC1 | -0.857%
14 | CCCn1c2ccccc2c2cnn(CC(=O)OC)c(=O)c21 | -0.361%
15 | COC(=O)c1cc(Cl)c(NC(=O)/C=C/c2ccc(OC)c(OC)c2)cc1OC | -22.4%
16 | Cc1ccnc(NS(=O)(=O)c2ccc(N)cc2)n1 | 9.29%
17 | CCOC(=O)c1ccc(S(=O)(=O)N2CCN(C)CC2)cc1 | 12.3%
18 | O=C(Nc1ccc2nc[nH]c2c1)c1ccco1 | -1.89%
19 | COc1ccc(N=Cc2c(O)ccc3ccccc23)cc1 | 6.06%
20 | O=C(CSc1c[nH]c2ccccc12)NC1CCCC1 | 11.2%
21 | Nc1nonc1OCCN1CCN(c2ccc([N+](=O)[O-])c3cccnc23)CC1 | -71.7%
22 | COc1ccc(S(=O)(=O)N(C)CC(=O)N2CCC(C)CC2)cc1Cl | -0.646%
23 | CNC(=O)Nc1ccc2nc(C)oc2c1 | 19.8%

Row | SMILES | hERG current change (%, negative = inhibition) at 10uM
24 | O=c1c2ccccc2nc(-c2ccoc2)n1-c1ccccc1Cl | 3.06%
25 | COc1ccccc1N1CCN(c2ccc(-c3ccccc3)nn2)CC1 | -5.47%
26 | N#CC1CC(c2ccc([N+](=O)[O-])cc2)=NN1c1ccc([N+](=O)[O-])cc1 (stereo not shown) | -6.29%
27 | O=C(Nc1csc(Cl)c1)c1ccccc1 | -4.17%
28 | COc1cc(C(=O)Sc2ccc(Cl)cc2)cc(OC)c1OC | 11.2%
29 | COc1ccc(-c2ccnc(-c3ccc(O)cc3)n2)cc1 | 5.37%
30 | CCCC(=O)N(Cc1cc2cc(C)ccc2[nH]c1=O)c1ccccc1OC | 6.09%
31 | Fc1ccc(CNC2CCN(Cc3ccccc3)CC2)cc1 | -65.3%
32 | Cc1cccc(-n2nc3c([n+]2[O-])CCc2nonc2-3)c1C | 11.4%
33 | COC(=O)Oc1ccc(/C=C/C(=O)OC(C)C)cc1OC(=O)OC | 1.69%
34 | CN(CC(CC(=O)Nc1nncs1)c1ccccc1)S(=O)(=O)c1ccc(Br)cc1 (stereo not shown) | -55.4%
35 | CNC(=S)SCCOc1ccc(C)cc1 | 25%
36 | CC(OC(=O)COc1ccccc1Cc1ccccc1)C(=O)N(C)c1ccccc1 (stereo not shown) | -0.572%
37 | O=C(Nc1ccc(Cl)cn1)c1ccc(COCC(F)(F)C(F)F)o1 | -31.8%
38 | Cc1nnsc1SCCNC(=O)c1ccc(F)cc1 | 9.04%
39 | CCN(CC)c1ccc(C2C3CCCCC3(O)CCN2C(=O)c2cccs2)cc1 (stereo not shown) | -7.15%
40 | COc1cc(S(=O)(=O)N2CCCC2)c(C)cc1C | 8.51%
41 | O=S(=O)(c1ccc(Br)s1)N1CCN(Cc2ccc3c(c2)OCO3)CC1 | 4.87%
42 | COC(=O)c1sc2nc(C)c([N+](=O)[O-])c(C)c2c1N | -17.6%
43 | Cc1ccc(C(=O)CC(=O)c2cccc(F)c2)c(O)c1 | 7.49%
44 | CC(=O)Nc1ccnn1C1CCN(C(=O)c2cccc(C)c2C)CC1 | 2.93%
45 | COC(=O)COc1coc(CN2CCN(c3cccc(Cl)c3)CC2)cc1=O | -11.4%
46 | CN(C(=O)c1ccc(Br)cc1)C1CCS(=O)(=O)C1 (stereo not shown) | 1.51%

Row | SMILES | hERG current change (%, negative = inhibition) at 10uM
47 | COc1ccccc1NC(=O)c1cc2c(CO)cnc(C)c2oc1=Nc1ccc(OC)c(OC)c1 | 13.3%
48 | CCN1CCN(c2ccccc2NC(=O)C(C)Oc2ccc(C(C)=O)cc2)CC1 (stereo not shown) | -51.6%
49 | CCOc1ccc(-c2nnc3n2N=C(c2ccc(OC)cc2)CS3)cc1 | 0.919%
50 | Br.COCC(C)NCc1cccc(C)c1 (stereo not shown) | 12.4%
51 | CCCCN(C)CCCNC(=O)C1(O)c2ccccc2NC(=O)N1c1ccc(Cl)cc1 (stereo not shown) | 22.2%
52 | COc1cc(NC(=O)c2cccc(Cl)c2)ccc1NC(=O)c1cccs1 | 4.34%
53 | COc1ccc(OC)c(NC(=O)C(=O)NNC(=O)C23CC4CC(CC(C4)C2)C3)c1 | 15.8%
54 | c1ccc(-c2cn(C[C@H]3CC[C@@H]([C@@H]4CC[C@H](Cn5cc(-c6ccccc6)nn5)O4)O3)nn2)cc1 | -23.8%
55 | CC(=O)Oc1ccc(C(=O)Cc2ccccn2)c(O)c1 | -9.71%
56 | Cc1ccc(NC(=O)CSc2nnc(NC(=O)c3ccco3)s2)cc1 | -4.44%
57 | CCOC(=O)c1ccc(N2C(=O)C3C(C2=O)C(C(=O)c2ccc(Cl)cc2)N2CCCC32)cc1 (stereo not shown) | 7.95%
58 | COC(=O)c1c(F)c(F)c(NCCO)c(F)c1F | -12.3%
59 | CCOC(=O)N1CCC(NC(=O)C2=CCN(S(=O)(=O)c3ccc(OC)cc3)CC2)CC1 | -36.7%
60 | CC(C)NC1CS(=O)(=O)CC1O (stereo not shown) | -6.76%
61 | Cc1ccc(NC(=O)c2cc(-c3ccc4c(c3)OCO4)on2)cc1 | -29.4%
62 | COc1ccc(NS(=O)(=O)c2cc(NC(=O)c3cccnc3Cl)ccc2N2CCCC2)cc1 | -13.2%
63 | CCN(CC)S(=O)(=O)c1ccc(C(=O)N2CCN=C2SC)cc1 | 15%
64 | CCOc1ccc(-c2c(C(=O)N/N=C/C3CCCCC3)nnn2-c2nonc2N)cc1 | 14.4%
65 | Cc1ccc(S(=O)(=O)N2CCN(C)CC2)cc1C | 11.2%
66 | COc1ccc2c(c1)-c1c(sn(-c3ccc(OC)c(OC)c3)c1=S)C(C)(C)N2 | 19.3%
67 | O=C(NCC1CCCN(C(=O)c2cccc(C(F)(F)F)c2)C1)c1ccc(F)cc1 (stereo not shown) | -8.13%
68 | Cc1ccc(N(CC(=O)N2CCCCCC2)S(=O)(=O)c2ccccc2)cc1 | -25.3%
69 | O=C(CN1C(=O)C2(OCCO2)c2ccccc21)c1ccc(F)cc1 | 2.09%

Row | SMILES | hERG current change (%, negative = inhibition) at 10uM
70 | CN(C)S(=O)(=O)c1ccc(N2CCCC2)c(C(=O)OCC(=O)NC2CCCCC2)c1 | -13.9%
71 | COc1ccc(NC(=O)c2cnc3sccn3c2=O)cc1 | -0.0573%
72 | O=C(NC(=S)N1CCc2ccccc21)c1ccccc1Br | 15.5%
73 | O=C(OC1CCCCC1)c1cc2ccccc2oc1=O | -32.6%
74 | CCOC(=O)C1CCN(CC(=O)c2c(C)n(C)c3ccc(OC)cc23)CC1 | -43.9%
75 | COc1ccc(CNC(=O)C(C)n2nc(C)n3c(cc4occc43)c2=O)cc1 (stereo not shown) | 1.62%
76 | O=C(Cc1csc(NC(=O)c2ccc(F)cc2)n1)NO | -3.56%
77 | CCN(CC)c1ccc(S(=O)(=O)N2CCCCC2)cc1NC(=O)C1=COCCO1 | -20%
78 | N/C(Cn1cncn1)=N\NC(=O)C(=O)Nc1ccccc1 | 32.3%
79 | O=C(O)c1ccc2c(c1)CCC2 | 9.54%
80 | COc1ccc(C2c3ccc4ccccc4c3Oc3ncn(Cc4ccco4)c(=N)c32)cc1OC (stereo not shown) | -62.9%
81 | CCN(CC(=O)NC(C)C)Cc1nc2sc3c(c2c(=O)[nH]1)CCC3 | 10.3%
82 | CN(NC(=O)CN1C(=O)c2ccccc2C1=O)C1=NS(=O)(=O)c2ccccc21 | 21.7%
83 | CC(C)(C)n1nnnc1C(c1cccs1)N1CCCC2(CCCCC2)C1 (stereo not shown) | -1.31%
84 | O=C1CC(c2nc3ccccc3[nH]2)CN1c1ccccc1 (stereo not shown) | -12.8%
85 | CCN(CC)S(=O)(=O)c1ccc(N2CCCC2)c(NC(=O)C2CCCCC2)c1 | 5.05%
86 | O=C(O)CN(Cc1ccco1)S(=O)(=O)c1ccccc1 | 11.6%
87 | COc1cc(C(C)=O)ccc1OCC(=O)Nc1ccc(Cl)c(S(=O)(=O)N2CCOCC2)c1 | -66.7%
88 | CCOC(=O)CCCn1ccc2cc(S(=O)(=O)N3CCCC3)ccc21 | -17.4%
89 | C=CC[n+]1ccn(-c2nc3ccccc3nc2[N-]S(=O)(=O)c2cccs2)c1 | 10.5%
90 | O=C(CCCOc1ccccc1)OCn1nnc2ccccc2c1=O | 16.2%
91 | Cc1ccc(S(=O)(=O)N2CCN(C(=O)c3cc4c(s3)CCCC4)CC2)c(C)c1 | 0.0922%

— paper PMC4336329 (PLoS ONE, 2015)
